From PMC12820563
The list shows a part of the results. The list includes weakly bound sequences.

molecular target: T1, MBP-FoxP3dN (UniProt Q99JB6); test: PD-seq (MBP pull-down with sequencing); details: 20 mM Tris-HCl pH 7.5, 100 mM NaCl, 1.5 mM MgCl2, 0.4 uM protein, 0.1 uM dsDNA library, 30 min, room temperature, amylose pull-down; high values mean tight binding; double strand, one strand shown
T1 sequence: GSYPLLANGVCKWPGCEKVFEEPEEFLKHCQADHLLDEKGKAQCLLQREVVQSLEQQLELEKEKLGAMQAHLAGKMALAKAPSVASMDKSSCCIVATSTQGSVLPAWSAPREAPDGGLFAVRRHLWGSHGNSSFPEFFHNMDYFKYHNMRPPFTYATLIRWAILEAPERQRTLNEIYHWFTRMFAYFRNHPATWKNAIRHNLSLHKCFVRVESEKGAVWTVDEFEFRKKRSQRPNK

Row | Sequence | binding signal (RPM ratio (pull-down/input))
1 | GATGATTGTTCTCCCAGCTGATGAATTCATGGATTCGAGTAAACAAATTTTCCTAATCTTTCTGTTCAAGCGCCATCTAC | 0.338
2 | GATGATTGTTCTCCCAGCTGATGAATTACTCGTCTCGAGTAAACAAATTTTCCTAATCTTTCTGTTCAAGCGCCATCTAC | 0.295
3 | GATGATTGTTCTCCCAGCTGATGAATTACATGCCTCGAGTAAACAAATTTTCCTAATCTTTCTGTTCAAGCGCCATCTAC | 0.891
4 | GATGATTGTTCTCCCAGCTGATGAATTGGGGAGGTCGAGTAAACAAATTTTCCTAATCTTTCTGTTCAAGCGCCATCTAC | 0.235
5 | GATGATTGTTCTCCCAGCTGATGAATTTGTACCGTCGAGTAAACAAATTTTCCTAATCTTTCTGTTCAAGCGCCATCTAC | 2.56
6 | GATGATTGTTCTCCCAGCTGATGAATTGTCCAATTCGAGTAAACAAATTTTCCTAATCTTTCTGTTCAAGCGCCATCTAC | 0.282
7 | GATGATTGTTCTCCCAGCTGATGAATTCAACTGGTCGAGTAAACAAATTTTCCTAATCTTTCTGTTCAAGCGCCATCTAC | 0.264
8 | GATGATTGTTCTCCCAGCTGATGAATTCGGAACCTCGAGTAAACAAATTTTCCTAATCTTTCTGTTCAAGCGCCATCTAC | 0.269
9 | GATGATTGTTCTCCCAGCTGATGAATTTTACCTGTCGAGTAAACAAATTTTCCTAATCTTTCTGTTCAAGCGCCATCTAC | 0.339
10 | GATGATTGTTCTCCCAGCTGATGAATTAATCTTTTCGAGTAAACAAATTTTCCTAATCTTTCTGTTCAAGCGCCATCTAC | 0.33
11 | GATGATTGTTCTCCCAGCTGATGAATTCCTTGAATCGAGTAAACAAATTTTCCTAATCTTTCTGTTCAAGCGCCATCTAC | 0.187
12 | GATGATTGTTCTCCCAGCTGATGAATTTTTCGTGTCGAGTAAACAAATTTTCCTAATCTTTCTGTTCAAGCGCCATCTAC | 0.363
13 | GATGATTGTTCTCCCAGCTGATGAATTCGCGAAGTCGAGTAAACAAATTTTCCTAATCTTTCTGTTCAAGCGCCATCTAC | 0.226
14 | GATGATTGTTCTCCCAGCTGATGAATTGACTAGGTCGAGTAAACAAATTTTCCTAATCTTTCTGTTCAAGCGCCATCTAC | 0.244
15 | GATGATTGTTCTCCCAGCTGATGAATTAGTGGTGTCGAGTAAACAAATTTTCCTAATCTTTCTGTTCAAGCGCCATCTAC | 3.01
16 | GATGATTGTTCTCCCAGCTGATGAATTAGCAAAATCGAGTAAACAAATTTTCCTAATCTTTCTGTTCAAGCGCCATCTAC | 0.271
17 | GATGATTGTTCTCCCAGCTGATGAATTACCATCATCGAGTAAACAAATTTTCCTAATCTTTCTGTTCAAGCGCCATCTAC | 0.663
18 | GATGATTGTTCTCCCAGCTGATGAATTGACAATCTCGAGTAAACAAATTTTCCTAATCTTTCTGTTCAAGCGCCATCTAC | 0.545
19 | GATGATTGTTCTCCCAGCTGATGAATTCGGTGGTTCGAGTAAACAAATTTTCCTAATCTTTCTGTTCAAGCGCCATCTAC | 1.1
20 | GATGATTGTTCTCCCAGCTGATGAATTCTTGACGTCGAGTAAACAAATTTTCCTAATCTTTCTGTTCAAGCGCCATCTAC | 0.254

Row | Sequence | binding signal (RPM ratio (pull-down/input))
21 | GATGATTGTTCTCCCAGCTGATGAATTAACAAGCTCGAGTAAACAAATTTTCCTAATCTTTCTGTTCAAGCGCCATCTAC | 0.36
22 | GATGATTGTTCTCCCAGCTGATGAATTTACACACTCGAGTAAACAAATTTTCCTAATCTTTCTGTTCAAGCGCCATCTAC | 0.746
23 | GATGATTGTTCTCCCAGCTGATGAATTGTCTTCATCGAGTAAACAAATTTTCCTAATCTTTCTGTTCAAGCGCCATCTAC | 0.483
24 | GATGATTGTTCTCCCAGCTGATGAATTTCTGAATTCGAGTAAACAAATTTTCCTAATCTTTCTGTTCAAGCGCCATCTAC | 0.597
25 | GATGATTGTTCTCCCAGCTGATGAATTATTAAAATCGAGTAAACAAATTTTCCTAATCTTTCTGTTCAAGCGCCATCTAC | 0.282
26 | GATGATTGTTCTCCCAGCTGATGAATTTTACATGTCGAGTAAACAAATTTTCCTAATCTTTCTGTTCAAGCGCCATCTAC | 0.427
27 | GATGATTGTTCTCCCAGCTGATGAATTCGTCCTCTCGAGTAAACAAATTTTCCTAATCTTTCTGTTCAAGCGCCATCTAC | 0.565
28 | GATGATTGTTCTCCCAGCTGATGAATTCGCACGTTCGAGTAAACAAATTTTCCTAATCTTTCTGTTCAAGCGCCATCTAC | 0.47
29 | GATGATTGTTCTCCCAGCTGATGAATTGTCGGTATCGAGTAAACAAATTTTCCTAATCTTTCTGTTCAAGCGCCATCTAC | 0.636
30 | GATGATTGTTCTCCCAGCTGATGAATTCACTAAGTCGAGTAAACAAATTTTCCTAATCTTTCTGTTCAAGCGCCATCTAC | 0.193
31 | GATGATTGTTCTCCCAGCTGATGAATTATAAGATTCGAGTAAACAAATTTTCCTAATCTTTCTGTTCAAGCGCCATCTAC | 0.351
32 | GATGATTGTTCTCCCAGCTGATGAATTATGGCCGTCGAGTAAACAAATTTTCCTAATCTTTCTGTTCAAGCGCCATCTAC | 0.618
33 | GATGATTGTTCTCCCAGCTGATGAATTGCACGCTTCGAGTAAACAAATTTTCCTAATCTTTCTGTTCAAGCGCCATCTAC | 1.06
34 | GATGATTGTTCTCCCAGCTGATGAATTCGGCGTATCGAGTAAACAAATTTTCCTAATCTTTCTGTTCAAGCGCCATCTAC | 1.17
35 | GATGATTGTTCTCCCAGCTGATGAATTTTTTCGGTCGAGTAAACAAATTTTCCTAATCTTTCTGTTCAAGCGCCATCTAC | 0.168
36 | GATGATTGTTCTCCCAGCTGATGAATTATCTTGATCGAGTAAACAAATTTTCCTAATCTTTCTGTTCAAGCGCCATCTAC | 0.337
37 | GATGATTGTTCTCCCAGCTGATGAATTGGATTGTTCGAGTAAACAAATTTTCCTAATCTTTCTGTTCAAGCGCCATCTAC | 2.54
38 | GATGATTGTTCTCCCAGCTGATGAATTATCGCACTCGAGTAAACAAATTTTCCTAATCTTTCTGTTCAAGCGCCATCTAC | 0.633
39 | GATGATTGTTCTCCCAGCTGATGAATTTCCGGGGTCGAGTAAACAAATTTTCCTAATCTTTCTGTTCAAGCGCCATCTAC | 0.175
40 | GATGATTGTTCTCCCAGCTGATGAATTCCCCTTTTCGAGTAAACAAATTTTCCTAATCTTTCTGTTCAAGCGCCATCTAC | 0.246
